The record followed here is publication PMC4336329 (PLoS ONE, 2015).

The whole screen tested about 310,000 compounds, of which about 2,200 (0.71%) showed an effect of 50% or more. The effect is printed as a negative number. This is one part of the list.

The target of this assay is human ether-à-go-go-related gene (hERG) potassium channel (human, UniProt Q12809). Description: primary screen, population patch clamp on CHO cells stably expressing hERG.
Chain of human ether-à-go-go-related gene (hERG) potassium channel (Q12809 whole entry, looked up): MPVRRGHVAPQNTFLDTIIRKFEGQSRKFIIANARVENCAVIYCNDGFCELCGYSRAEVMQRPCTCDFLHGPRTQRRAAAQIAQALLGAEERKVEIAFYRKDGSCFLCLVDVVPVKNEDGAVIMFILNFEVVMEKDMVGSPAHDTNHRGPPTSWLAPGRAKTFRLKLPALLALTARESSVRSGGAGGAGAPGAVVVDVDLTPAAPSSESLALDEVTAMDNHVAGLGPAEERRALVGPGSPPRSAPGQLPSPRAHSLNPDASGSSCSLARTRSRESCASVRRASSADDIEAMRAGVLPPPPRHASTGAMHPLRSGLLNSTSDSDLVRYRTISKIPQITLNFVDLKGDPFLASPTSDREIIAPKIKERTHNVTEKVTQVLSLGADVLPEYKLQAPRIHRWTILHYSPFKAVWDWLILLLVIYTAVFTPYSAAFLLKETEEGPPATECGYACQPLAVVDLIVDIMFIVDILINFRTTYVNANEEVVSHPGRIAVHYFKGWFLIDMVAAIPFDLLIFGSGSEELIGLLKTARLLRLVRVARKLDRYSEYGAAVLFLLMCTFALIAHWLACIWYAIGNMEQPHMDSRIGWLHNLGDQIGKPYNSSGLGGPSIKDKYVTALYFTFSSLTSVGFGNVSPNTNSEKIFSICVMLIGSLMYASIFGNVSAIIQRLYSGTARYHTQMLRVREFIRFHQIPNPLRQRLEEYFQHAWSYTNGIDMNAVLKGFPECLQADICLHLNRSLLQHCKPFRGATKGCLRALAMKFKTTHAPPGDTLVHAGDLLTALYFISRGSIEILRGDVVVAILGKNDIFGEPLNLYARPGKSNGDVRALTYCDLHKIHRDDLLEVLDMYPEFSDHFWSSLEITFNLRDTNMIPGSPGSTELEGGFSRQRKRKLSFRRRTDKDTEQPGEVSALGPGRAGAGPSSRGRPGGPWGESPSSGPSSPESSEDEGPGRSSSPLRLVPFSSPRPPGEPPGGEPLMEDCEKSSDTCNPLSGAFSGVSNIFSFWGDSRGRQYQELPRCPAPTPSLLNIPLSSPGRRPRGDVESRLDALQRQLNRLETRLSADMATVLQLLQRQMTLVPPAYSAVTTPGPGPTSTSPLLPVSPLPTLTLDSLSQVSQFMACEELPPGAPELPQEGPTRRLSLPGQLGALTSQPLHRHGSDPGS
Regarding `COc1cccc(CC(NC(C)=O)C(=O)NC2CCN(c3nnnn3-c3ccccc3)CC2)c1OC` (centres unmarked), the “hERG current change (%, negative = inhibition) at 1uM” value is 18.4%.
On to `Cc1ccccc1C(O)c1cccnc1` (centres unmarked), for which the “hERG current change (%, negative = inhibition) at 1uM” value was 20.8%.
For the compound `CC1(C)O[C@@H]2[C@H](O1)[C@@H](CO)O[C@H]2n1ccc(=O)[nH]c1=O`, the “hERG current change (%, negative = inhibition) at 1uM” value was 12.2%.
Next, `NC(=O)C1CCN(C(=O)/C=C/c2ccco2)CC1`: 18.9%; `COC(=O)c1ccc(-c2nc(O)c(C)s2)cc1`: 9.1%; `COc1ccc(CNC(=O)c2ccc(N(C)S(=O)(=O)c3ccc(C)cc3)cc2)cc1`: 10.1%.
For `Cc1ccc(N(C(=O)CS(=O)CC(=O)Nc2ccc(F)cc2)C(C(=O)NC2CCCCC2)c2ccco2)cc1` (centres unmarked), the “hERG current change (%, negative = inhibition) at 1uM” value was determined as 13.2%.
As to `CN(CCO)c1cc(NCCCN2CCC(Cc3ccccc3)CC2)c2nonc2c1[N+](=O)[O-]`, the “hERG current change (%, negative = inhibition) at 1uM” value was -4.81%.
On to `Cl.O=C(CNCC1CCCO1)Nc1ccccc1-n1cccc1` (centres unmarked), for which the “hERG current change (%, negative = inhibition) at 1uM” value is listed as -3.21%.
As for `COc1cc(C(=O)NCCCn2ccnc2)cc(OC)c1OC.Cl`, the figure is 10.3%.
For the compound `CCCCOC(=O)Nc1nnc(CCc2ccccc2)s1`, the “hERG current change (%, negative = inhibition) at 1uM” value was 15.8%.
For `O=C(COc1ccc(Br)cc1)NNC(=S)NCc1ccccc1`, the “hERG current change (%, negative = inhibition) at 1uM” value is reported as 8.17%.
Take `COC(=O)c1ccc(CSc2nc3c(c(=O)n2-c2ccc(F)cc2)SCC3)o1`: the “hERG current change (%, negative = inhibition) at 1uM” value came to 6.74%.
As to `Cc1nc(CSc2n[nH]c(=O)n2-c2ccccc2)cs1`, the “hERG current change (%, negative = inhibition) at 1uM” value is reported as -1.48%.
As to `O=C(O)c1cccn1Cc1ccccc1F`, the “hERG current change (%, negative = inhibition) at 1uM” value turned out to be 11%.
Next, `O=C(O)C1C2C=CC(O2)C1C(=O)NC1CCCc2ccccc21` (centres unmarked): 9.49%; `COc1ccc(NC(=O)c2cc3c(=O)n(C)c4ccccc4c3s2)cc1OC`: 7.24%; `Cc1ccccc1N(CC(=O)N1CCOCC1)S(C)(=O)=O`: 15.5%.
`CCOC(=O)C1(Cc2ccc(OC)cc2)CCN(C(=O)CN2CCOC2=O)CC1`: the “hERG current change (%, negative = inhibition) at 1uM” value came out at 12.7%.
As for `CCC(=O)Nc1ccc2oc(-c3ccccc3Br)nc2c1`, the figure is 9.07%; as for `O=C(O)CN1C(=O)/C(=C\c2cccc(OCc3ccc(F)cc3)c2)SC1=S`, 6.79%; as for `O=C(COC(=O)COc1cccc(C(F)(F)F)c1)NC1CCS(=O)(=O)C1` (centres unmarked), 3.96%.
Next, `O=C(NCc1ccccc1)/C(=C/c1ccco1)NC(=O)c1ccco1`: -0.0579%; `O=C(C[n+]1ccc2ccccc2c1)c1cccc2ccccc12.[Br-]`: -34.4%.
In the case of `COc1ccc(N2CCN(C3CCCN(C(=O)C4=C(C)OCCO4)C3)CC2)cc1` (centres unmarked), the “hERG current change (%, negative = inhibition) at 1uM” value is on record as 7.16%.
As to `CCOC(=O)Cn1c(-c2nonc2NC(=O)c2ccccc2F)nc2ccccc21`, the “hERG current change (%, negative = inhibition) at 1uM” value is 10.5%.
Take `Cc1[nH]c2ccccc2c1/C=C/C(=O)c1ccncc1`: the “hERG current change (%, negative = inhibition) at 1uM” value is 11.7%.
As for `Cc1ccc(-n2nc3c(=O)n(CC(=O)NCCc4ccco4)nc(C)c3c2C)cc1`, the figure is 13%.
Next, `C=CCn1c(SCC(=O)/C(C#N)=C(\C)N)nc2sc(CC)cc2c1=O`: 15.8%; `CCN(C(=O)COC(=O)/C=C/c1ccccc1)C1CCCCC1`: 0.077%.
For `Cc1cccc(-c2ccc(C=Nc3c(C)n(C)n(-c4ccccc4)c3=O)o2)c1`, the “hERG current change (%, negative = inhibition) at 1uM” value is 8.52%.
For `Cc1ccc(S(=O)(=O)CC(=O)c2ccc([N+](=O)[O-])cc2)cc1`, the “hERG current change (%, negative = inhibition) at 1uM” value worked out at 5.39%.
Turning to `O=S(=O)(c1cnccc1N1CCN(CCO)CC1)N1CCCCC1`, the “hERG current change (%, negative = inhibition) at 1uM” value was found to be 9.78%.
For `Cc1ccc(S(=O)(=O)NCCC(=O)Nc2nnc(C3CC3)s2)cc1C`, the “hERG current change (%, negative = inhibition) at 1uM” value was determined as 16%.
Next, `COc1ccc(Cc2nc3ccc(C(=O)N4CCN(C)C(C)C4)cc3o2)cc1OC` (centres unmarked): 1.76%; `CN1C(=O)[C@@H]2[C@@H]3C[C@@H]([C@H]4ON=C(c5ccccc5OCC#N)[C@@H]34)[C@@H]2C1=O`: 1.36%; `Cc1cccc(N(C(=O)Cn2nnc3ccccc32)C(C(=O)NCc2ccco2)c2ccncc2)c1` (centres unmarked): 4.42%.
As for `COC(=O)C1=C(c2ccc(-c3ccccc3)c(F)c2)C[C@@H]2CC[C@H]1N2C(=O)NCCOc1ccccc1`, the figure is 9.04%; as for `Cc1ccc(P(=Nc2ccccc2)(N2CCOCC2)N2CCOCC2)o1`, -0.807%; as for `O=C1C=CC(=O)N1c1ccc(I)cc1Cl`, 13.5%.
Next, `CC(=O)N/N=C/c1cc(C(C)(C)C)cc(/C=N/NC(C)=O)c1O`: 15.2%.
Regarding `Cn1c(O)c(C=NCCN2CCN(C(=O)Nc3ccccc3)CC2)c(=O)n(C)c1=O`, the “hERG current change (%, negative = inhibition) at 1uM” value is recorded as 17.5%.
As for `Cl.O=[N+]([O-])c1cc(CN(CCO)CCO)ccc1O`, the figure is 3.69%.
With `NS(=O)(=O)c1ccc(N/C=C\C(=O)c2ccc(F)cc2)cc1`, the “hERG current change (%, negative = inhibition) at 1uM” value is on record as 11.4%.
As for `CCOc1c(Cl)cc(CNCC(O)c2ccccc2)cc1OC.Cl` (centres unmarked), the “hERG current change (%, negative = inhibition) at 1uM” value is 5.12%.
As for `COc1ccc(/C=C2\CC/C(=C\c3ccc(OC)cc3OC)C2=O)c(OC)c1`, the figure is -1.76%.
For `CC(CSc1nnnn1-c1ccccc1)Cn1c(N2CCN(C)CC2)nc2c1c(=O)[nH]c(=O)n2C` (centres unmarked), the “hERG current change (%, negative = inhibition) at 1uM” value was determined as 2.1%.
Regarding `Cc1cc(OC(=O)c2cc(Br)ccc2Cl)c([N+](=O)[O-])c(=O)[nH]1`, the “hERG current change (%, negative = inhibition) at 1uM” value is on record as 6.76%.
With `O=C(Cc1cccc2ccccc12)NCC(=O)Nc1ccccc1F`, the “hERG current change (%, negative = inhibition) at 1uM” value was determined as 8.74%.
Regarding `COc1ccccc1CC(=O)N(CCC1=CCCCC1)c1c(N)n(Cc2ccccc2)c(=O)[nH]c1=O`, the “hERG current change (%, negative = inhibition) at 1uM” value is 9.44%.
Next, `Cc1[nH]c(=O)[nH]c(=O)c1S(=O)(=O)NCC12CC3CC(CC(C3)C1)C2`: 0.34%.
As for `CC[C@H](C)[C@H](NC(N)=O)C(=O)Nc1ccc(OC)c(Cl)c1`, the figure is 16.3%; as for `CC(Oc1cc(-c2ccccc2)cc2ccccc12)C(=O)N1CCOCC1` (centres unmarked), 6.22%.
As for `CN(C)Cc1ccc(CNC(=O)c2ccc(Cl)c(S(=O)(=O)NC3CC3)c2)cc1`, the figure is 8.79%; as for `COc1ccc(C(=O)C2CCCN(C(=O)c3cccc(N(C)C)c3)C2)cc1OC` (centres unmarked), 11.5%.
`C=CCOC(=O)Cn1cnc2c(sc3nc(C)cc(C)c32)c1=O`: the “hERG current change (%, negative = inhibition) at 1uM” value was 13.5%.
As to `CC(Sc1nc2ccc(C(=O)c3ccccc3)cc2[nH]1)C(=O)O` (centres unmarked), the “hERG current change (%, negative = inhibition) at 1uM” value stood at 12.2%.
For `CSCCC(NC(=O)c1ccc(Cl)cc1Cl)C(=O)OC1CCCCC1=O` (centres unmarked), the “hERG current change (%, negative = inhibition) at 1uM” value is 10.7%.
As for `Cc1ccc(C2=NC3(CCCCC3)NC2=S)cc1`, the figure is 6.21%; as for `CCCOc1ccc(C(=O)Nc2ccc(S(=O)(=O)N3C[C@@H]4C[C@@H](C3)c3cccc(=O)n3C4)cc2)cc1`, 7.93%; as for `Cn1c(=O)c(=O)n(C)c2cc(S(=O)(=O)N3CCN(c4ccccc4F)CC3)ccc21`, 7.12%.
In the case of `O=C(N/N=C/c1ccccc1O)c1cc(=O)[nH]c2ccccc12`, the “hERG current change (%, negative = inhibition) at 1uM” value stood at 13.9%.
Next, `Cc1cc(Cl)ccc1NC(=S)NCc1ccccc1Cl`: 13.4%.
`COc1ccc(OC)c(S(=O)(=O)Nc2cc3c4c(c2)CC(=O)N4CCC3)c1`: the “hERG current change (%, negative = inhibition) at 1uM” value is listed as 7.91%.
As for `Cc1ccc(C2(C)NC(=O)N(CC(=O)Nc3ccc(N4CCOCC4)cc3N3CCOCC3)C2=O)cc1` (centres unmarked), the figure is 6.66%.
As for `N#Cc1cc(-c2ccccc2)oc1NC(=O)c1ccco1`, the “hERG current change (%, negative = inhibition) at 1uM” value is recorded as -4.5%.
Turning to `COc1cc(OC)c(NS(=O)(=O)c2cc(C(=O)OCC(=O)NCC3CCCO3)ccc2OC)cc1Cl` (centres unmarked), the “hERG current change (%, negative = inhibition) at 1uM” value is on record as -7.5%.
As for `CC(=O)Oc1ccc(/C=N/NC2=NS(=O)(=O)c3ccccc32)cc1`, the figure is 15.1%; as for `C=CCn1cc(C(=O)NCCOC)c(=O)c2cc(S(=O)(=O)N(CC)CC)ccc21`, 5.14%; as for `Br.COc1cccc(C(=O)Cn2c(NCCCO)nc3ccccc32)c1`, 11.3%.
As for `Cc1cc(C)n2nc(CNS(=O)(=O)c3cccc([N+](=O)[O-])c3)nc2n1`, the figure is 17.6%; as for `O=C1CSC(=NC(=O)c2ccccc2)N1`, 4.77%; as for `CN(CCc1ccccn1)C(=O)CC1C(=O)NCCN1Cc1ccccc1C(F)(F)F` (centres unmarked), 4.75%.
On to `CCCCCn1c(N2CCN(c3cccc(Cl)c3)CC2)nc2c1c(=O)[nH]c(=O)n2C`, for which the “hERG current change (%, negative = inhibition) at 1uM” value is -3.22%.
Next, `CCCCOc1ccc(C(=O)Nc2ccc(S(=O)(=O)Nc3cc(C)on3)cc2)cc1OC`: 17.1%; `CC1CCN(CC(=O)Nc2sc3c(c2C#N)CCC3)CC1`: 9.88%; `O=C(NCCNc1cc(Cl)ccc1[N+](=O)[O-])c1ccco1`: 5.19%.
Next, `CCN(CC)C(=O)c1[nH]cnc1C(=O)N[C@@H](C)C(=O)OC(C)(C)C`: 11.3%.
On to `COc1ccc(/C=C(\NC(=O)c2ccco2)C(=O)Nc2ccc(C(C)=O)cc2)cc1`, for which the “hERG current change (%, negative = inhibition) at 1uM” value was 15.6%.
Next, `c1nc(NC2CCCC2)c2[nH]cnc2n1`: 5.57%; `COc1cc(OC)c(NC(=O)Nc2ccc(OC)c(OC)c2)cc1Cl`: 9.3%.
Regarding `O=C1CCC(c2ccccc2)c2ccccc21` (centres unmarked), the “hERG current change (%, negative = inhibition) at 1uM” value was 11.3%.
Next, `COc1ccc(CCC(=O)N(C)CC(=O)Nc2cc(C)ccc2C)cc1`: 5.79%.
Next, `O=C(c1cccc(NS(=O)(=O)c2ccc(F)c(F)c2)c1)N1CCN(C(c2ccccc2)c2ccccc2)CC1`: -3.46%; `N#Cc1cccc(Nc2c3c(nc4ccccc24)CCCC3)c1`: -60.5%.
Next, `COc1ccc(NC(=O)CSc2ccc(-c3sc(C)nc3C)nn2)cc1OC`: 5.05%.
